# The supplement of paper PMC3334620
# In all, about 33,000 sequences were measured (“E-score (-0.5 to 0.5)”: median about -0.021, highest 2% from about 0.32 on). The list shows a part of the results.
# Target: T1, Zap1 (UniProt P47043)
# T1 sequence: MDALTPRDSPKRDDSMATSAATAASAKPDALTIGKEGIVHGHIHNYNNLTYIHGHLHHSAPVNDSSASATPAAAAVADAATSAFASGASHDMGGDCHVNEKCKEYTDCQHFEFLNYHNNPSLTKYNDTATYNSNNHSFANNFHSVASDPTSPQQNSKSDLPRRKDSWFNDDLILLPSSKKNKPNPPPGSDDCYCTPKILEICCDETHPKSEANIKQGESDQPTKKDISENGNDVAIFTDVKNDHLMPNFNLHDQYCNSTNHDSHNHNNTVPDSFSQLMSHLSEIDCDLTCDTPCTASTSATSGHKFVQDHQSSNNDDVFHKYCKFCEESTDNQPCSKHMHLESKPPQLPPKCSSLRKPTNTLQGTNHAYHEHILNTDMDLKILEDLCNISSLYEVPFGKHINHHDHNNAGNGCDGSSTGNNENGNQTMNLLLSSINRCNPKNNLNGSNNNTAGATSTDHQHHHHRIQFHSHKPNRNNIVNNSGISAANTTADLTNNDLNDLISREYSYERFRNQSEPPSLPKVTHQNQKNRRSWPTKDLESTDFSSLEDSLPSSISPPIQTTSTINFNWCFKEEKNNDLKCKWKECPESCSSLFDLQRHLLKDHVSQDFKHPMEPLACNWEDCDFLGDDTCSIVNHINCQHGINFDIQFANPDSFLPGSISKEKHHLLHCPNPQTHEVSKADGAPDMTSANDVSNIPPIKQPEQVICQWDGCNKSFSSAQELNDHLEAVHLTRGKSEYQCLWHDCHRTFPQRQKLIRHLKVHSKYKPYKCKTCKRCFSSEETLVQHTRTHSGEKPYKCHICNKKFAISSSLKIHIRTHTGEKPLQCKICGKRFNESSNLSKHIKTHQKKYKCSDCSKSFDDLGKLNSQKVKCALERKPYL
# Assay: PBM E-score (8-mer binding enrichment) (E-score (-0.5 to 0.5)); higher = stronger / more preferred TF binding; most listed sequences are background and not binding sites
# Conditions: protein concentration: 200 nM; construct: GST-full length
# Outline: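 Bound GST-tagged yeast transcription factors, applied at about 100-200 nM to double-stranded universal all-10-mer Agilent arrays, were detected with fluorescent anti-GST. Scans were normalised with masliner. A modified Wilcoxon-Mann-Whitney statistic, the E-score, was assigned to each ungapped eight-base word pooled with its reverse complement by the Universal PBM Analysis Suite.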
row,Sequence,PBM E-score
1,CCAGAGCA,0.0133
2,AGATCCTG,-0.117
3,CAGTACCA,0.214
4,CCGCATCA,-0.0394
5,GTTACGCA,0.208
6,CAGTGGAA,-0.0442
7,ATGACACA,0.161
8,AATTGATA,0.0582
9,CTTCCTCA,-0.105
10,ATGATCGC,-0.107
11,CCCCTCTC,-0.199
12,AGCGGGAA,-0.268
13,CGTCACAA,-0.0229
14,CGAGACCA,0.186
15,ATCATGTA,0.0425
16,GATACCGC,0.106
17,ATTCGTAA,0.132
18,CAGTTAGA,-0.0791
19,GCCTGAGA,-0.0989
20,AAGAACTC,0.0396
21,TATACACA,0.19
22,GCAAGCAC,-0.267
23,ATGTCATG,0.0809
24,ATACGCTG,-0.0449
25,TCCTATCA,-0.102

row,Sequence,PBM E-score
1,ATTCTATA,0.0331
2,CATGGGCG,0.00918
3,GGACGAGA,-0.0403
4,CTAAGGTC,0.151
5,CTACAAGC,-0.173
6,CTCGTTCC,-0.14
7,GGTAGCGA,0.244
8,ACAAAATG,0.131
9,AACTGGCG,-0.0757
10,AAGGTAAT,0.322
11,CTACCTAG,0.104
12,CGAGGGAC,-0.155
13,GATGTCGA,0.0118
14,CTAAGCCC,-0.245
15,AGTTTGCG,-0.00356
16,AATATTTC,0.151
17,TAGGAGCA,-0.0671
18,CTGCCCTA,-0.0669
19,AAGAATGG,0.0435
20,CGATCGTA,0.031
21,GCAGCCAC,-0.169
22,CCCGGTTA,0.25
23,ACCCTGTG,0.367
24,ATACTCCA,-0.0866
25,CGAACTCA,0.0393

row,Sequence,PBM E-score
1,CAATCTCA,0.117
2,CGGCCGCA,-0.129
3,AAACCAGT,-0.107
4,AACTCCAT,0.0901
5,AAACGCGT,-0.134
6,GCGGTTCC,0.217
7,AAAAGTCG,-0.033
8,ACGGAATC,-0.0608
9,GATTCTAC,-0.167
10,GTGATTAA,0.23
11,GCACGACA,-0.111
12,TCGAGAGA,-0.0777
13,CAGAGGGC,-0.213
14,ACTACAGG,0.133
15,CTACCAGC,-0.116
16,ATGACGAA,-0.026
17,ACTCGGAC,0.0249
18,AGACTGCC,-0.405
19,CACCACCG,-0.019
20,ACTAAGCT,0.0651
21,AGAAGCGG,-0.0937
22,CCGTGGGC,-0.107
23,AGCCAGTC,-0.234
24,AGTTTGAG,0.0386
25,AGTATGAA,-0.0476

row,Sequence,PBM E-score
1,GCAGTCGC,-0.0577
2,ATAGGGGA,-0.202
3,GGCCGTGA,0.305
4,ATGAGGCA,-0.189
5,ATATCATA,0.117
6,ATATGCGC,-0.087
7,GACGTTGC,-0.16
8,AGGTACCC,0.451
9,CATCCAAC,-0.0586
10,CTTATAGC,-0.0488
11,CTATGAGC,-0.127
12,CATAGTAG,0.0582
13,AAGTCCCC,-0.101
14,GAGGGTGA,0.126
15,AACCCGGG,0.324
16,AAGTACGG,-0.114
17,TAGCTAGA,-0.0796
18,CACGACTC,-0.0638
19,GAACAACC,0.232
20,CGGCACCG,-0.0772
21,AATGCCGC,-0.0546
22,ATTGTAAG,-0.0918
23,CAATGCTC,-0.176
24,CAAACTTG,0.0239
25,ACGCGCAC,-0.223

row,Sequence,PBM E-score
1,GAAGAGCA,-0.213
2,CCACGCAA,0.142
3,ATCCACCA,-0.235
4,CAAGAGCA,-0.245
5,CTTGCTTA,0.0317
6,TACACCGA,0.0144
7,AACCCGGT,0.249
8,ATATGCCA,-0.0681
9,GAAAAGGC,-0.00555
10,AACACATA,0.202
11,GTGCCTGA,-0.201
12,TCAACAAA,0.221
13,ACAACGGT,0.0336
14,ACACGGTA,0.0887
15,AAACGATG,-0.0259
16,ATATGGGC,0.0573
17,TAGCTGCA,-0.246
18,CCACCGAC,-0.203
19,TACAGATA,0.0943
20,AAAGAGAT,-0.0645
21,AATCCTGC,-0.231
22,AGAATGAA,0.0866
23,TCGGCTAA,-0.0807
24,AGACGGTA,0.118
25,TAGTTGGA,0.0081

row,Sequence,PBM E-score
1,GCTCAGAC,-0.146
2,AACCCGTT,0.224
3,CACCCAGC,-0.18
4,ACTCGAGT,0.0619
5,AGGCAGCC,-0.136
6,AAAACGGG,0.117
7,AATTGGGG,-0.128
8,GAAGCTCA,-0.161
9,CGCCTCCC,-0.305
10,CATCTAGA,0.112
11,TGTTAACA,0.0668
12,ACTTTTAG,0.0547
13,TCCCTCAA,0.014
14,GCTAGGAC,-0.234
15,ACGTGTCG,-0.15
16,GATTCGGA,0.0664
17,ATGGTCGC,0.114
18,CATTGGCC,-0.184
19,CCTACCCA,0.0987
20,GGATATAA,0.225
21,ATACTCAG,0.0785
22,AGAGACCT,-0.0112
23,CCATGATA,0.0221
24,ACATAAGC,-0.01
25,GTGCACCA,0.0419

row,Sequence,PBM E-score
1,GCCTCGGA,-0.216
2,GACTCTCA,-0.197
3,ACACACAT,0.00725
4,CAGTTGAG,-0.138
5,CGACACAA,-0.0138
6,GCTGCGAA,-0.0459
7,ACACAGCC,-0.0397
8,GGTTCTTA,0.217
9,AGATCACT,0.152
10,GGCCGGGA,-0.00587
11,CAGATAGC,-0.143
12,TACGTCTA,-0.00108
13,AGGTCGTC,0.0799
14,AAGTACTT,0.276
15,AATCACAT,-0.0878
16,CGGAAGGA,-0.257
17,ACTGATAC,-0.127
18,AAATCTGC,-0.0255
19,GCTCGCCC,-0.173
20,ATTGACAC,0.021
21,ATGGTTCA,0.119
22,CTAGCATA,-0.115
